Results on 56 compounds are retold here after patent US7592316B2, “Peptides as NS3-serine protease inhibitors of hepatitis C virus” (Schering Corporation, priority 2000, dated 2009).

Bounds are passed on as bounds.

The assay addresses HCV NS3/NS4A protease (strain 1a) (Hepatitis C virus genotype 1a, UniProt P27958). Description: biochemical. The settings on record: Table 5; HCV NS3/NS4A protease, spectrophotometric assay, 30° C., pH 6.5; read-out: Ki* Range.
As usually defined, the Ki is the equilibrium dissociation constant of an inhibitor or competing ligand from its target. On to `CCCC(NC(=O)[C@@H]1[C@@H]2[C@H](CN1C(=O)[C@@H](NC(=O)[C@H](CC(C)C)NS(C)(=O)=O)C(C)(C)C)C2(C)C)C(=O)C(N)=O` (some centres unmarked), for which the Ki lay in the range of 101 to 1000 nM.
For the compound `CC(C)(C)OC(=O)N[C@H](C(=O)N1C[C@@H]2[C@H]([C@H]1C(=O)NC(CC1CCC1)C(=O)C(N)=O)C2(C)C)C(C)(C)C` (some centres unmarked), the Ki lay in the range of 1 to 100 nM.
In the case of `CCCC(NC(=O)[C@@H]1C(c2ccccc2)CN1C(=O)C(NC(=O)OC(C)(C)C)C1CCCCC1)C(=O)C(N)=O` (some centres unmarked), the Ki is greater than 1000 nM.
Consider `CCCC(NC(=O)[C@@H]1[C@H]2[C@@H](CN1C(=O)[C@@H](NC(=O)OC(CC)CC)C1Cc3ccccc3C1)C2(C)C)C(=O)C(N)=O` (some centres unmarked), for which the inhibitory constant (Ki) was 101 to 1000 nM.
Under `CC(C)(C)OC(=O)N[C@H](C(=O)N[C@@H](CC1CC1)C(=O)NC(CC1CC1)C(=O)C(N)=O)C1CCCCC1` (some centres unmarked) stands 101 to 1000 nM; under `CCCCCCNC(=O)N[C@H](C(=O)N1C[C@H]2[C@@H]([C@H]1C(=O)NC(CCC)C(=O)C(N)=O)C2(C)C)C(C)(C)C` (some centres unmarked), 101 to 1000 nM; under `CCCCCCCCCCCCNC(=O)N[C@H](C(=O)N1C[C@H]2[C@@H]([C@H]1C(=O)NC(CCC)C(=O)C(N)=O)C2(C)C)C(C)(C)C` (some centres unmarked), greater than 1000 nM.
In the case of `C=CCCC(NC(=O)[C@@H]1[C@@H]2[C@H](CN1C(=O)[C@@H](NC(=O)NC(C)CC)C1CCCCC1)C2(C)C)C(=O)C(=O)NCC=C` (some centres unmarked) it was 1 to 100 nM; in that of `C=CCCNC(=O)C(=O)C(CCC=C)NC(=O)[C@@H]1[C@@H]2[C@H](CN1C(=O)[C@@H](NC(=O)OC(C)(C)C)C1CCCCC1)C2(C)C` (some centres unmarked), 1 to 100 nM.
Take `C=CCCC(NC(=O)[C@@H]1[C@@H]2[C@H](CN1C(=O)[C@@H](NC(=O)OC(C)(C)C)C1CCC(=O)CC1)C2(C)C)C(=O)C(=O)NCC=C` (some centres unmarked): the Ki is 101 to 1000 nM.
In the case of `C=CCCC(NC(=O)[C@@H]1[C@@H]2[C@H](CN1C(=O)[C@@H](N)C1CCC(F)(F)CC1)C2(C)C)C(=O)C(=O)NCC=C` (some centres unmarked) it was greater than 1000 nM; in that of `C=CCCC(NC(=O)[C@@H]1[C@@H]2[C@H](CN1C(=O)[C@@H](NC(=O)OC(C)(C)C)C(C)C)C2(C)C)C(=O)C(=O)NCC=C` (some centres unmarked), greater than 1000 nM.
Consider `C=CCNC(=O)C(=O)C(CCC1CC1)NC(=O)[C@@H]1[C@@H]2[C@H](CN1C(=O)[C@@H](NC(=O)OC(C)(C)C)C1CCCCC1)C2(C)C` (some centres unmarked), for which the inhibition constant Ki was in the range of 101 to 1000 nM.
In the case of `C=CCNC(=O)C(=O)C(CCC)NC(=O)[C@@H]1C2C(CN1C(=O)[C@@H](NC(=O)NC(C)(C)C)C1Cc3ccccc3C1)C2(C)C` (some centres unmarked) it was 101 to 1000 nM.
For `C=CCCC(NC(=O)[C@@H]1C2C(CN1C(=O)[C@@H](NC(=O)OC(C)(C)C)C1Cc3ccccc3C1)C2(C)C)C(=O)C(=O)NCCC(=O)OC(C)(C)C` (some centres unmarked), the Ki lay in the range of 101 to 1000 nM.
With `C=CCCC(NC(=O)[C@@H]1[C@@H]2[C@H](CN1C(=O)[C@@H](NC(=O)NC13CC4CC(CC(C4)C1)C3)C1CCCCC1)C2(C)C)C(=O)C(=O)NCC=C` (some centres unmarked), the Ki is 101 to 1000 nM.
Under `C=CCCC(NC(=O)[C@@H]1[C@@H]2[C@H](CN1C(=O)[C@@H](NC(=O)N(C(C)C)C(C)C)C1CCCCC1)C2(C)C)C(=O)C(=O)NCC=C` (some centres unmarked) stands 101 to 1000 nM.
In the case of `C=CCCC(NC(=O)[C@@H]1[C@@H]2[C@H](CN1C(=O)[C@@H](NC(=O)NC(C)(C)CC(C)(C)C)C1CCCCC1)C2(C)C)C(=O)C(=O)NCC=C` (some centres unmarked) it was 1 to 100 nM; in that of `C=CCCC(NC(=O)[C@@H]1[C@@H]2[C@H](CN1C(=O)[C@@H](NC(=O)NCC=C)C1CCCCC1)C2(C)C)C(=O)C(=O)NCC=C` (some centres unmarked), 101 to 1000 nM; in that of `C=CCCC(NC(=O)[C@@H]1[C@H]2[C@@H](CN1C(=O)[C@@H](NC(=O)NC(C)(C)c1cccc(C(=C)C)c1)C1CCCCC1)C2(C)C)C(=O)C(=O)NCC=C` (some centres unmarked), 101 to 1000 nM.
In the case of `C=CCNC(=O)C(=O)C(CCC)NC(=O)[C@@H]1[C@@H]2CCC(C)(C)OC2CN1C(=O)[C@@H](NC(=O)OC(C)(C)C)C(C)(C)C` (some centres unmarked), the Ki was greater than 1000 nM.
Under `C=CCNC(=O)C(=O)C(Cc1ccccc1)NC(=O)[C@@H]1[C@H]2[C@@H](CN1C(=O)[C@@H](NC(=O)OC(C)(C)C)C(C)(C)C)C2(C)C` (some centres unmarked) stands greater than 1000 nM; under `C=CCCCC(NC(=O)[C@@H]1[C@@H]2[C@H](CN1C(=O)[C@@H](NC(=O)OC(C)(C)C)C1CCCCC1)C2(C)C)C(=O)C(=O)NCC=C` (some centres unmarked), 101 to 1000 nM.
In the case of `C=CCCCNC(=O)C(=O)C(CCC=C)NC(=O)[C@@H]1[C@H]2[C@@H](CN1C(=O)[C@@H](NC(=O)OC(C)(C)C)C1CCCCC1)C2(C)C` (some centres unmarked) it was 101 to 1000 nM.
Take `CCCC(NC(=O)[C@@H]1[C@@H]2[C@H](CN1C(=O)[C@@H](NC(=O)OC(C)(C)C)C(C)(C)C)C2(C)C)C(=O)C(=O)NCCC(=O)OC(C)(C)C` (some centres unmarked): the inhibitory constant (Ki) is 101 to 1000 nM.
Under `C=CCCNC(=O)C(=O)C(CCC=C)NC(=O)[C@@H]1[C@@H]2[C@H](CN1C(=O)[C@@H](NC(=O)OC(C)(C)C)C1Cc3ccccc3C1)C2(C)C` (some centres unmarked) stands 1 to 100 nM; under `C=CCNC(=O)C(=O)C(CCC)NC(=O)[C@@H]1C2C(CN1C(=O)C(NC(=O)OC(C)(C)C)C(c1ccccc1)c1ccccc1)C2(C)C` (some centres unmarked), greater than 1000 nM.
In the case of `C=CCCNC(=O)C(=O)C(CCC=C)NC(=O)[C@@H]1[C@@H]2[C@H](CN1C(=O)[C@@H](NC(=O)NC13CC4CC(CC(C4)C1)C3)C1CCCCC1)C2(C)C` (some centres unmarked) it was 101 to 1000 nM.
In the case of `C=CCCC(NC(=O)[C@@H]1[C@@H]2[C@H](CN1C(=O)[C@@H](OC(=O)NC(C)(C)C)C1CCCCC1)C2(C)C)C(=O)C(=O)NCC=C` (some centres unmarked) it was greater than 1000 nM; in that of `C=CCNC(=O)C(=O)C(CC1CC1)NC(=O)[C@@H]1[C@H]2[C@@H](CN1C(=O)[C@@H](NC(=O)OC(C)(C)C)C1CCCC1)C2(C)C` (some centres unmarked), greater than 1000 nM.
For the compound `C=CCCC(NC(=O)[C@@H]1[C@@H]2[C@H](CN1C(=O)[C@@H](NC(=O)[C@@H](NC(=O)OC(C)(C)C)C1CCN(C(=O)OCc3ccccc3)CC1)C1CCCCC1)C2(C)C)C(=O)C(=O)NCC=C` (some centres unmarked), the Ki lay in the range of 101 to 1000 nM.
Consider `C=CCCC(NC(=O)[C@@H]1[C@@H]2[C@H](CN1C(=O)[C@@H](NC(=O)OC13CC4CC(CC(C4)C1)C3)C1CCCCC1)C2(C)C)C(=O)C(=O)NCC=C` (some centres unmarked), for which the Ki was in the range of 101 to 1000 nM.
In the case of `C=CCNC(=O)C(=O)C(CCC)NC(=O)[C@@H]1[C@H]2[C@@H](CN1C(=O)[C@@H](NC(=O)OCC(C)C)C1CCCC1)C2(C)C` (some centres unmarked) it was greater than 1000 nM.
In the case of `C=CCNC(=O)C(=O)C(CCC)NC(=O)[C@@H]1[C@H]2[C@@H](CN1C(=O)[C@@H](NC(=O)OCC(C)(C)C)C1CCCC1)C2(C)C` (some centres unmarked) it was 101 to 1000 nM; in that of `C=CCNC(=O)C(=O)C(CCC)NC(=O)[C@@H]1[C@H]2[C@@H](CN1C(=O)[C@@H](NC(=O)OC(CC)CC)C1CCCC1)C2(C)C` (some centres unmarked), 101 to 1000 nM; in that of `C=CCNC(=O)C(=O)C(CCC)NC(=O)[C@@H]1[C@H]2[C@@H](CN1C(=O)[C@@H](NC(=O)CC(C)CC)C1CCCC1)C2(C)C` (some centres unmarked), greater than 1000 nM.
As to `C=CCNC(=O)C(=O)C(CC=C)NC(=O)[C@@H]1C2C(CN1C(=O)[C@@H](NC(=O)OC(C)(C)C)C1CCCC1)C2(C)C` (some centres unmarked), the Ki is greater than 1000 nM.
Regarding `C=CCC(NC(=O)[C@@H]1[C@H]2[C@@H](CN1C(=O)[C@@H](NC(=O)OC(C)(C)C)C1CCCC1)C2(C)C)C(=O)C(=O)NCCC(=O)OC(C)(C)C` (some centres unmarked), the Ki lay within 101 to 1000 nM.
`C=CCC(NC(=O)[C@@H]1C2C(CN1C(=O)[C@@H](NC(=O)OC(C)(C)C)C1Cc3ccccc3C1)C2(C)C)C(=O)C(=O)NCCC(=O)OC(C)(C)C` (some centres unmarked): the Ki was greater than 1000 nM.
Under `C=CCNC(=O)C(=O)C(CC1CCC1)NC(=O)[C@@H]1[C@H]2[C@@H](CN1C(=O)[C@@H](NC(=O)OC(C)(C)C)C(C)(C)C)C2(C)C` (some centres unmarked) stands greater than 1000 nM.
In the case of `C=CCCC(NC(=O)[C@@H]1[C@@H]2[C@H](CN1C(=O)[C@@H](NC(=O)NC1CCCCC1)C1CCCCC1)C2(C)C)C(=O)C(=O)NCC=C` (some centres unmarked) it was 101 to 1000 nM; in that of `C=CCNC(=O)C(=O)C(CCC)NC(=O)[C@@H]1[C@H](c2ccccc2)CN1C(=O)C(NC(=O)OC(C)(C)C)C1CCCCC1` (some centres unmarked), greater than 1000 nM; in that of `C=CCNC(=O)C(=O)C(CCC)NC(=O)[C@@H]1[C@H]2[C@@H](CN1C(=O)C(NCCC(C)c1ccccc1)C(C)(C)C)C2(C)C` (some centres unmarked), greater than 1000 nM.
Regarding `C=CCNC(=O)C(=O)C(CCC)NC(=O)[C@@H]1C2C(CN1C(=O)C(NCCc1ccccc1)C(C)(C)C)C2(C)C` (some centres unmarked), the Ki is greater than 1000 nM.
Consider `C=CCNC(=O)C(=O)C(CCC)NC(=O)[C@@H]1[C@H]2[C@@H](CN1C(=O)C(NCCC(C)(C)C)C(C)(C)C)C2(C)C` (some centres unmarked), for which the Ki is greater than 1000 nM.
Take `C=CCCC(NC(=O)[C@@H]1[C@@H]2[C@H](CN1C(=O)[C@@H](NC(=O)OC(C)(C)C)C1CCN(C(=O)OCc3ccccc3)CC1)C2(C)C)C(=O)C(=O)NCC=C` (some centres unmarked): the Ki lay within 101 to 1000 nM.
As to `CC(C)(C)OC(=O)CCNC(=O)C(=O)C(CC1CCC1)NC(=O)[C@@H]1C2C(CN1C(=O)C(NC(=O)OC(C)(C)C)C(C)(C)C)C2(C)C` (some centres unmarked), the inhibition constant (Ki) was greater than 1000 nM.
In the case of `C=CCCNC(=O)C(=O)C(CCC=C)NC(=O)[C@@H]1[C@@H]2[C@H](CN1C(=O)[C@@H](NC(=O)OC(C)(C)C)C(C)(C)C)C2(C)C` (some centres unmarked) it was 101 to 1000 nM; in that of `C=CCCNC(=O)C(=O)C(CCC=C)NC(=O)[C@@H]1[C@@H]2[C@H](CN1C(=O)[C@@H](N)C(C)(C)C)C2(C)C` (some centres unmarked), greater than 1000 nM; in that of `C=CCNC(=O)C(=O)C(CCC)NC(=O)[C@@H]1[C@H]2[C@@H](CN1C(=O)[C@@H](NC(=O)OCC=C)C1CCCC1)C2(C)C` (some centres unmarked), greater than 1000 nM.
Under `C=CCCC(NC(=O)[C@@H]1[C@H]2[C@@H](CN1C(=O)[C@@H](NC(=O)NC(C)(C)C)C1Cc3ccccc3C1)C2(C)C)C(=O)C(=O)NCC=C` (some centres unmarked) stands 1 to 100 nM.
In the case of `C=CCCC(NC(=O)[C@@H]1[C@H]2[C@@H](CN1C(=O)[C@@H](NC(=O)NC(C)CC)C1Cc3ccccc3C1)C2(C)C)C(=O)C(=O)NCC=C` (some centres unmarked) it was 1 to 100 nM; in that of `C=CCCC(NC(=O)[C@@H]1[C@H]2[C@@H](CN1C(=O)[C@@H](NC(=O)NC(C)C)C1Cc3ccccc3C1)C2(C)C)C(=O)C(=O)NCC=C` (some centres unmarked), 1 to 100 nM.
Turning to `C=CCCC(NC(=O)[C@@H]1[C@H]2[C@@H](CN1C(=O)[C@@H](NC(=O)NC1C[C@H]1c1ccccc1)C1Cc3ccccc3C1)C2(C)C)C(=O)C(=O)NCC=C` (some centres unmarked), the Ki is greater than 1000 nM.
On to `C=CCCC(NC(=O)[C@@H]1[C@H]2[C@@H](CN1C(=O)[C@@H](NC(=O)Nc1ccccc1)C1Cc3ccccc3C1)C2(C)C)C(=O)C(=O)NCC=C` (some centres unmarked), for which the inhibition constant Ki lay in the range of 101 to 1000 nM.
With `C=CCCC(NC(=O)[C@@H]1[C@H]2[C@@H](CN1C(=O)[C@@H](NC(=O)NCc1ccccc1)C1Cc3ccccc3C1)C2(C)C)C(=O)C(=O)NCC=C` (some centres unmarked), the Ki fell in the range of 101 to 1000 nM.
